Measured values as given in PubChem BioAssay AID686970 (National Center for Advancing Translational Sciences (NCATS), 2013).
Screen size: about 360,000 compounds; about 6,000 (1.7%) were called active. The shares of active, inactive and inconclusive entries below differ from those in the screen. Calls follow the shape of the dose curve; as a rule, active = well fitted cell-killing curve with a large enough effect; inconclusive = small, poorly fitted or top-dose-only effect, or effect the other way; inactive = flat fitted curve, though single readings scatter. No potency is given beside an inconclusive call; the fits are too rough.

Test: qHTS for induction of synthetic lethality in tumor cells producing 2HG: qHTS for the HT-1080-NT fibrosarcoma cell line;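 also: NT is the 2HG producing partner of a matched IDH1 knockdown line; nearly all actives have a fitted effect of over 55% in size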;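 as to activity, negative = less viability: 0% = DMSO-treated cells and -100% = media-only wells without cells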
Details: HT-1080-NT fibrosarcoma viability, CellTiter-Glo ATP luminescence, 48 h; activity, negative = less viability: at 46.1 µM (top of the series) unless noted
Summary of the method: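 Toxicity toward the 2HG-producing NT line was scored as %Activity, normalised to DMSO and no-cell wells, from CellTiter-Glo luminescence after 48 hours' treatment.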
Potency is read from the fitted curve at half-maximal effect; tags tell the direction and shape of the fitted curve.

| Structure (SMILES) | activity, negative = less viability | Potency |
| --- | --- | --- |
| Nc1nnc(C(c2ccccc2)c2ccccc2)s1 | inactive: 1.47% |  |
| Cc1cccc(NC(=O)CNC(=O)CCNC(=O)c2ccc(C(C)(C)C)cc2)c1C | inactive: 6.36% |  |
| O=C(CCCN1C(=O)/C(=C\c2ccco2)SC1=S)Nc1cccc2ccccc12 |  | inconclusive [cytotoxic, single point] |
| COc1cc(CNCc2cccs2)ccc1OCc1ccccc1 |  | inconclusive [cytotoxic, partial curve] |
| COc1cccc2c(=O)c(SC(F)(F)C(F)C(F)(F)F)c(C)[nH]c12 (stereo unspecified) |  | inconclusive [cytotoxic, single point] |
| O=C(N/N=C/c1cccnc1)c1cc(-c2cccs2)nc2ccccc12 |  | inconclusive [cytotoxic, partial curve] |
| CC(=O)Nc1cccc(C(=O)NNC(=O)c2n[nH]c(=O)c3ccccc23)c1 | inactive: 2.89% |  |
| C=CCSc1ncc(-c2ccccc2)cn1 |  | inconclusive [rising, full curve] |
| O=S1(=O)N=C(Nc2nncs2)c2ccccc21 |  | inconclusive [cytotoxic, single point] |
| Cc1ccc(S(=O)(=O)N2CCN(Cc3ccccc3)CC2)s1 | inactive: -6.26% |  |
| COc1ccc(C(=O)Cn2cnc3ccc(Cl)cc3c2=O)cc1F | inactive: 17.9% |  |
| CCOC1=C2CN(S(=O)(=O)c3ccc(C)cc3)[C@@H](c3cccc4ccccc34)C[C@H]2[C@H]2C(=O)N(c3ccccc3)C(=O)[C@H]2C1 |  | inconclusive [rising, single point] |
| COc1ccc(CCNC(=S)N2CCC(C(N)=O)CC2)cc1 |  | inconclusive [rising, single point] |
| O=C(c1cc2nc(-c3ccccc3)cc(C(F)(F)F)n2n1)N1CCN2CCCC2C1 (stereo unspecified) |  | inconclusive [cytotoxic, single point] |
| Cc1cc(C)c(CSc2ncc(-c3ccc([N+](=O)[O-])cc3)[nH]2)c(C)c1 |  | inconclusive [cytotoxic, single point] |
| CCCCC(=O)N(C)c1c(CC)nc2c(OCCC)cccn12 | inactive: 0.73% |  |
| COc1ccc(-c2cc(CNC(=O)CN(C)Cc3ccccc3)on2)cc1 | inactive: -3.52% |  |
| O=C1CC(O)(C(F)(F)F)Oc2c1ccc1ccccc21 (stereo unspecified) |  | inconclusive [cytotoxic, single point] |
| CCOc1cc(C(=O)N(C)Cc2cc3cc(OC)ccc3[nH]c2=O)cc(OCC)c1OCC | inactive: 5.45% |  |
| COc1ccc(NC(=O)CN(C)C(=O)c2ccc3[nH]c4c(c3c2)CC(C)CC4)cc1 (stereo unspecified) | inactive: -29.1% |  |
| COc1ccc(-c2ccc(C(=O)NCC(C)C)c3occc23)c(C)c1 |  | inconclusive [cytotoxic, single point] |
